Source: the supplement of paper PMC11383711
Residue numbers refer to the chain shown, from its start. This is one part of the list. Binding of human antibodies (heavy:light variable regions, tested as scFv in one mRNA-display pool) to influenza hemagglutinin, with or without the stem antibody CR9114 bound first. Score = (mean enrichment − median) / interquartile range of that screen; higher = more enriched, 0 = typical non-binder. Active = above the paper's cut-off per screen: stems 28; unblocked H1 Solomon Islands 5, H1 Michigan 3, H3 5, H5 19, H7 2.85, both B 5; blocked 9, 7, H5 10, H7 10, B Phuket 10, B Lee 11.5. Scores are scaled within each screen and are no affinities; replicates correlate at about 0.6 to 0.9, and antibodies rare in the pool are noisier.

B1: K77-2A10 (protein)
chain 1: EVQLVESGGGLVQPGGSLRLSCEASGFIFSTYSMNWVRQAPGKGLEWVSYISDSSRTIYYADSVKGRFTISRDNTKNSLFLQMNNLRAEDTALYYCARDPDTPFIRAFDSWGQGTLVTVSS
chain 2: DIQLTQSPSFLSASVGDRVTITCRASQDISSYVAWYQQKPGKAPKLLIYATSTLQSGVPSRFSGGGSGTEFTLTIRGLQPEDFATYYCQQLNIYPPVTFGQGTKLEIK
B2: 01.d.04 (protein)
chain 1: EVQLVESGGGVVQPGGSLRLSCAASGFTFSDYGIHWVRQAPAKGLEWVTFIRHDGNSEYFVDSVKGRFTVSRDNSKNTVYLQVNRLRPDDTAIYYCAKDAVWSGYYPTHSYFEYWGQGTLVPVSS
chain 2: DIQMTQVPVSLSASVGDRVTITCRASQGISNYLNWYQQKPGKAPKLLIYAISNLFSGVPSRFSGSESGTDFTLTISSLQPEDFATYYCQQTYTTPQTFGQGTKVEIK
B3: C1-2B06 (protein)
chain 1: VQLQESGPGLVKPSETLSLTCSVSGDSISETIYYWGWIRQSQGKGLEWIGNVYYDASTYYNPSLKSRVTMSIDTSKNQFSLKVSSVTAADTAVYYCARVPDGYKYYYGMDVWGQGTTVTVSS
chain 2: EIVMTQSPATLSVSPGERVTLSCRASQGVSSKLAWYQQKRGQAPRLLIYGASTRATGIPARFSGSGSGTEFTLTISSLQSEDFAIYYCQQYYNWTPITFGQGTRLEIK
B4: 042-10-2D01 (protein)
chain 1: QVQLQESGPRVVKPSETLSLTCSVSGESISSFYWSWIRQPAGKGLEWIGRIDSSGSTNYNPSLKSRVSMSLDTSKKQVSLKLTSVTAADTAVYYCVRDWWEVQYGNAFDMWGQGTMVTVSS
chain 2: DIQMTQSPSSLSASVGDRVILTCRASQSIGTYLNWYQQKPGKAPKFLIYVASNLQSGVPSRFSGSGSGTDFTLTISSLQPEDFATYFCQQSHSIPWTFGQGTKVEIK
B5: K77-2A05 (protein)
chain 1: EVQLVESGGGVVQPGRSLRLSCAASGFTFASYGLHWVRQAPGKGLEWVAHVSSEGSEKYYADSVKGRFTISRDNPKNKLYLQMTSLRAEDTAVYYCARDRSGYFQVDYWGQGTLVTVSS
chain 2: QSALTQPASVSGSPGQSITISCTGATSDVGNYNLVSWYQHHPGKVPKLILYEVTERPSGVSNRFSGSKSGNTASLTISGLQAEDEADYYCCSYATGGIFLFGTGTKVTVL
B6: K77-1B02 (protein)
chain 1: EVQLVESGGGLERPGGSLRLSCAASGFTFDDHGMSWVRQAPGKGLEWVSGINWNGGSTGYADSVKGRFTISRDNAKSSLFLQMNSLRAEDTALYYCARDSQQGIAAAGIFHYWGQGTLVTVSS
chain 2: DIQMTQSPSTLSASVGDRVTITCRASQSINRWLAWYQQKPGKAPKLLIYRASSLESGVPSRFSGSGSGTEFTLTISSLQPDDFATYFCQHYEGYSWTFGQGTKVDIK
B7: 014-10-1G06 (protein)
chain 1: QVQLVESGGGVVQPGRSLRLSCAASGFTFNSYAMHWVRQAPGKGLEWVAVISYDETNKHFSDSVKGRFTISRDNSKNTLLLQMDSLRIEDTAVYYCAREASFAFFDIWGQGTMVTVSS
chain 2: EIVMTQSPATLSVSPGERATLSCRASQSLTINLAWYQQRPGQAPRLLIYGASTRATGIPARFSGSGSGTEFTLTISSLQSEDFAVYYCQQYHNWPPLTFGGGTKVEIK
B8: C6-2-2C06 (protein)
chain 1: VQLLESGGGLVQPGGSLRLSCAASGFTFSFSAMSWIRQTPAKGLEWVAAISGNGGATFYTDSVKGRFTISRDNSKSTVHLQMHSLRAEDTAVYYCAKKSPNDYDHYWGQGALVTVSS
chain 2: DIQMTQSPSTLSSSVGDSVTITCRASQSISTYLAWYQQKPGKAPKVLIYQASILESGVPSRFSGSGSGTEFTLTISSLQPDDFATYYCQQYNSYSGTFGQGTKVEIK
B9: K77-2B03 (protein)
chain 1: EVQLVESGGIVVRPGGSLTLSCTTSGFTFDAHAMHWVRQAPGKGLEWVSLIGWDSAVTFYADSVRGRFNISRDNSKNSLYLQINSLRLEDTALYYCVRDDGSGSYGYHHFDLDVWGRGTMVIVSS
chain 2: DVVMTQSPLSLPVTLGQPASISCRSTQSLVFSDGDTYLNWFQQRPGQSPRRLIYKVSNRDSGVPDRFSGSGSGTDFTLRISRVEADDVGVYYCMQGTHWPLTFGGGTKVEI
B10: 042-10-2B05 (protein)
chain 1: QVQLVESGGGVVQTGRSLRLSCAASGFTFRNYAMHWVRQAPGKGLEWVAVILYDGNNEYYADFAKGRFTISRDNSKNIVYLQLNSLRPEDSAIYFCAKDGEYSGHESEVHWGQGTLVTVSS
chain 2: B6 chain 2 with I29V, N30F, R31S, L46V, R50K, F87Y, H90Q, E92Q, G93S, D105E
B11: AG1-A01 (protein)
chain 1: VQLVESGGGFVQAGRSLRLSCAASGFIFDDFAMHWVRQAPGGGLEWVSHISSNSGLIVYAESVKGRFTISRDNAMDALYLQMNSLTIEDTAFYYCMKGGHYSDSRGYGSNWGRGTLVTVSS
chain 2: DIQMTQSPSSLSASVGDRVTITCRTSQAISNRLAWFQQKPGKAPKSLIYAASTLQTGVPSKFSGTGSGTDFTLTISSLQPEDFATYYCQQYKSFPLTFGRGTKVEIK
B12: C1-3E03 (protein)
chain 1: VQLVESGGGLVQPGGSLRLSCVVSGFSFSKYEMNWVRQAPGKGLEWISYISSSGETIFYADSVRGRFTTSRDNAHNSLYLQMNSLRAEDTAIYYCANMRAWFWYDPADDIGHWGQGTLVTVSS
chain 2: EIVMTQSPVTLSVFPGERATLSCRASQSVNNNLAWYQQRPGQTPKLLIYDASTRATGIPARFSGSGSGTVFTLTISSLQSEDIAVYYCQQYAGWPPWTFGQGTKVEIK
B13: W85-1H08 (protein)
chain 1: EVQVVESGGGVVQPGRSLRLSCAASGFTFGSYAMYWVRQAPGKGLEWVAVISYDGSDKYYGDFVKGRFTISRDNSKNTLYLQMNSLRVEDTAVYYCLRGRYGDPPTDFWGQGTLVTVSS
chain 2: QSALTQPPSVSEAPRQRVTISCSGSRSNIGNNAVNWYQQLPGKAPKLLIFYDDLLSSGVSDRFSGSKSGTSASLAISGLQSEDEADYYCATWDDILNGPVFGGGTKLTV
B14: 236-14-IgG-1A06 (protein)
chain 1: QVQLQESGPGLVKPSETLSLTCTVSGGSISSSSHYCTWIRQPPGKGLEWIGGIYYTGNAYYNPSLKSRVTISVDASKNQFSLKLRSVTAADTAVFYCVGSQAIDAFDFWGQGTMVTVSS
chain 2: QSALTQPPSASGSPGQSVTISCTGTSSDVGYYNYVSWYQQHPGKAPKLMIYEVSNRPSGVPDRFSGSKSGNSASLTVSGLQAEDEADYYCSSYGGSNNVIFGGGTKLTVL
B15: SFV009-3A02 (protein)
chain 1: EVQLLESGGGLVQPGGSLRLSCEASGFTFISYAMSWVRQAPGKGLEWVSVISGSGGARYYADSVKGRFTISRDNSKNTLYLEMNNVRAEDTAVYFCAKDRILPYDTDAFDIWGQGTMVTVSS
chain 2: DIQMTQSPSTLSASVGDRVTITCRASESVSVSLAWYQQKPGKAPKLLIYKASTLESGVPPRFSGSGSGTEFTLTISSLQPNDFATYYCQEYHTSSRVTFGPGTKVDIK
B16: antibody 3E05 (protein)
chain 1: EVQLVESGGGLVQPGGSLRLSCAASGFTFSSYDMHWVRQAAGKGLEWVSAIGTAGDPYYPGSVKGRFTISRENAKNSLYLQLNSLRAGDTAVYYCARGVAASLVPRRYYYGLDVWGQGTTVTVSS
chain 2: SYELTQPPSVSVSPGQTASITCSGDMLGDKYACWYQQKPGQSPVLVIYEDTKRPSGIPERFSGSNSGNTATLTISGTQAMDEADYYCQAWTGSTPVVFGGGTKLTVL
B17: R95-1H10 (protein)
chain 1: EVQLVESGGVVVQPGGSLRLSCAASGFTFDDFVMHWVRQAPGKGLEWLSLITWDGGNSYYADSVKGRFTISRDNNKNSLYLQMNSLRPEDTAFYYCAKDIISGNYEDFSGYLDSWGQGTLVTVSS
chain 2: EIVMTQSPATLSVSPGGRATLSCRASQSVSSNLAWYQQKPGQPPRLLMYGASTRATGIPARFSGSGSGTEFTLTISSLQSEDVAVYYCQQYNNWPSITFGQGTRLEIK
B18: AG11-2A01 (protein)
chain 1: VQLVESGGAVVQPGGSLTLSCAASGFTFDDYAMHWVREVPGKGLEWVSLISWDAGNTYYGDSVKGRFNISRDNSKNFLYLQMNSLRADDTALYYCAKDIGGGNYDYYHGMDAWGQGTTVTVSS
chain 2: EIVMTQSPATLSVSPGERATLSCRASYSFGSKLAWYQQKPGQAPRLLIYGTSTRATGIPARFSGSGSGTEFTLTISSLQSEDFAVYYCQQYNNWPYTFGQGTKVEIK
B19: K77-2H08 (protein)
chain 1: QVQLQESGPGLVKPSETLSLTCSVSGNSITSGYFWGWIRQTPGKGLEFIGSISHKGEPYYNPPLKGRVAVSSDTSKNEFSLTLASVTAADTAIYYCARERGGTYGYFDHWGPGSLVTVSS
chain 2: DIQMTQSPSTLSASVGDRVTITCRASESIGAWVTWYQQKPGKAPNLLIYKASTLQTGVPSRFSGGGSGTDFTLTISSLQPDDFATYYCQQYFRDVTFGQGTKVEIK

target: H1 HA stem construct (mini-HA #4900); assay: mRNA display binding score; higher = more enriched on the antigen; conditions: antigen blocked with: nothing
Experimental: (§1)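 A pool of natively paired antibodies, displayed as scFv on mRNA, was selected once on antigen-coated beads and sequenced before and after; two replicates.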

mRNA display binding score, inactive:
B1 -0.433
B2 0.788
B3 -0.627
B4 -0.554
B5 -0.946
B6 0.33
B7 0.144
B8 -1.24
B9 0.107
B10 -0.18
B11 1.04
B12 -0.231
B13 -1.03
B14 0.806
B15 -0.82
B16 -0.00878
B17 -0.287
B18 -1.22
B19 -0.347

target: H3 HA stem construct (H3ssF); assay: as above; conditions: antigen blocked with: nothing
Experimental: as §1

mRNA display binding score, inactive:
B1 -0.186
B2 0.191
B3 -0.417
B4 0.417
B5 -0.742
B6 -0.0773
B7 0.295
B8 2.91
B9 0.00388
B10 -0.229
B11 0.563
B12 -0.0427
B13 0.0882
B14 -0.0939
B15 -0.493
B16 0.0199
B17 -0.0913
B18 0.161
B19 -0.411
